Experimental data reported in the supplement of paper PMC11876631.
± gives the standard deviation of the averaged measurements. Laboratory Escherichia coli strains with one amino-acid change in an essential protein, pooled on minimal glucose agar with carbenicillin or gentamicin at twice the control MIC (plus kanamycin and chloramphenicol for the plasmids), 48 h. Fold change of barcode share against drug-free plates; higher = less susceptible. Active = above 20 in both replicates (the paper's putatively resistant). '<' = one read or none on drug, '>' = one read or none on a drug-free plate. Shares are relative, so most strains fall below 1 when a few take over. Listed are strains with at least 15 reads on both drug-free plates, and hits; most hits rest on fewer reference reads. Replicate rank correlation about 0.5. Edits are read from barcodes.

Target: Escherichia coli (laboratory strain)
Experiment: barcode share on antibiotic plates over drug-free plates; higher = less susceptible
Protocol: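 A pool of E. coli strains, each edited to carry one amino-acid change in an essential protein, was grown for 48 h on minimal glucose agar with or without antibiotic; strain barcodes were sequenced; mean of two replicates.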

[1] = antibiotic: carbenicillin, 2× MIC (3.1 µg/mL)
[2] = antibiotic: gentamicin, 2× MIC (MIC 0.45 µg/mL)

Protein	fold change of barcode share [1]	fold change of barcode share [2]
hemB F121A (protein) MTDLIQRPRRLRKSPALRAMFEETTLSLNDLVLPIFVEEEIDDYKAVEAMPGVMRIPEKHLAREIERIANAGIRSVMTFGISHHTDETGSDAWREDGLVARMSRICKQTVPEMIVMSDTCACEYTSHGHCGVLCEHGVDNDATLENLGKQAVVAAAAGADFIAPSAAMDGQVQAIRQALDAAGFKDTAIMSYSTKFASSFYGPFREAAGSALKGDRKSYQMNPMNRREAIRESLLDEAQGADCLMVKPAGAYLDIVRELRERTELPIGAYQVSGEYAMIKFAALAGAIDEEKVVLESLGSIKRAGADLIFSYFALDLAEKKILR	0.315 ± 0.13	0.0125 ± 0.0033
hemB F121P (protein) MTDLIQRPRRLRKSPALRAMFEETTLSLNDLVLPIFVEEEIDDYKAVEAMPGVMRIPEKHLAREIERIANAGIRSVMTFGISHHTDETGSDAWREDGLVARMSRICKQTVPEMIVMSDTCPCEYTSHGHCGVLCEHGVDNDATLENLGKQAVVAAAAGADFIAPSAAMDGQVQAIRQALDAAGFKDTAIMSYSTKFASSFYGPFREAAGSALKGDRKSYQMNPMNRREAIRESLLDEAQGADCLMVKPAGAYLDIVRELRERTELPIGAYQVSGEYAMIKFAALAGAIDEEKVVLESLGSIKRAGADLIFSYFALDLAEKKILR	0.264 ± 0.044	0.482 ± 0.066
hemB M116Q (protein) MTDLIQRPRRLRKSPALRAMFEETTLSLNDLVLPIFVEEEIDDYKAVEAMPGVMRIPEKHLAREIERIANAGIRSVMTFGISHHTDETGSDAWREDGLVARMSRICKQTVPEMIVQSDTCFCEYTSHGHCGVLCEHGVDNDATLENLGKQAVVAAAAGADFIAPSAAMDGQVQAIRQALDAAGFKDTAIMSYSTKFASSFYGPFREAAGSALKGDRKSYQMNPMNRREAIRESLLDEAQGADCLMVKPAGAYLDIVRELRERTELPIGAYQVSGEYAMIKFAALAGAIDEEKVVLESLGSIKRAGADLIFSYFALDLAEKKILR	0.194 ± 0.015	< 0.0106
hemB M116A (protein) MTDLIQRPRRLRKSPALRAMFEETTLSLNDLVLPIFVEEEIDDYKAVEAMPGVMRIPEKHLAREIERIANAGIRSVMTFGISHHTDETGSDAWREDGLVARMSRICKQTVPEMIVASDTCFCEYTSHGHCGVLCEHGVDNDATLENLGKQAVVAAAAGADFIAPSAAMDGQVQAIRQALDAAGFKDTAIMSYSTKFASSFYGPFREAAGSALKGDRKSYQMNPMNRREAIRESLLDEAQGADCLMVKPAGAYLDIVRELRERTELPIGAYQVSGEYAMIKFAALAGAIDEEKVVLESLGSIKRAGADLIFSYFALDLAEKKILR	0.227 ± 0.016	0.0262 ± 0.029
hemB F121W (protein) MTDLIQRPRRLRKSPALRAMFEETTLSLNDLVLPIFVEEEIDDYKAVEAMPGVMRIPEKHLAREIERIANAGIRSVMTFGISHHTDETGSDAWREDGLVARMSRICKQTVPEMIVMSDTCWCEYTSHGHCGVLCEHGVDNDATLENLGKQAVVAAAAGADFIAPSAAMDGQVQAIRQALDAAGFKDTAIMSYSTKFASSFYGPFREAAGSALKGDRKSYQMNPMNRREAIRESLLDEAQGADCLMVKPAGAYLDIVRELRERTELPIGAYQVSGEYAMIKFAALAGAIDEEKVVLESLGSIKRAGADLIFSYFALDLAEKKILR	0.533 ± 0.062	0.233 ± 0.33
hemB F121Q (protein) MTDLIQRPRRLRKSPALRAMFEETTLSLNDLVLPIFVEEEIDDYKAVEAMPGVMRIPEKHLAREIERIANAGIRSVMTFGISHHTDETGSDAWREDGLVARMSRICKQTVPEMIVMSDTCQCEYTSHGHCGVLCEHGVDNDATLENLGKQAVVAAAAGADFIAPSAAMDGQVQAIRQALDAAGFKDTAIMSYSTKFASSFYGPFREAAGSALKGDRKSYQMNPMNRREAIRESLLDEAQGADCLMVKPAGAYLDIVRELRERTELPIGAYQVSGEYAMIKFAALAGAIDEEKVVLESLGSIKRAGADLIFSYFALDLAEKKILR	0.313 ± 0.063	0.00608 ± 0.0027
hemB M116W (protein) MTDLIQRPRRLRKSPALRAMFEETTLSLNDLVLPIFVEEEIDDYKAVEAMPGVMRIPEKHLAREIERIANAGIRSVMTFGISHHTDETGSDAWREDGLVARMSRICKQTVPEMIVWSDTCFCEYTSHGHCGVLCEHGVDNDATLENLGKQAVVAAAAGADFIAPSAAMDGQVQAIRQALDAAGFKDTAIMSYSTKFASSFYGPFREAAGSALKGDRKSYQMNPMNRREAIRESLLDEAQGADCLMVKPAGAYLDIVRELRERTELPIGAYQVSGEYAMIKFAALAGAIDEEKVVLESLGSIKRAGADLIFSYFALDLAEKKILR	0.313 ± 0.14	< 0.0095
argG M261W (protein) MTTILKHLPVGQRIGIAFSGGLDTSAALLWMRQKGAVPYAYTANLGQPDEEDYDAIPRRAMEYGAENARLIDCRKQLVAEGIAAIQCGAFHNTTGGLTYFNTTPLGRAVTGTMLVAAMKEDGVNIWGDGSTYKGNDIERFYRYGLLTNAELQIYKPWLDTDFIDELGGRHEMSEFMIACGFDYKMSVEKAYSTDSNMLGATHEAKDLEYLNSSVKIVNPIMGVKFWDESVKIPAEEVTVRFEQGHPVALNGKTFSDDVEMWLEANRIGGRHGLGMSDQIENRIIEAKSRGIYEAPGMALLHIAYERLLTGIHNEDTIEQYHAHGRQLGRLLYQGRWFDSQALMLRDSLQRWVASQITGEVTLELRRGNDYSILNTVSENLTYKPERLTMEKGDSVFSPDDRIGQLTMRNLDITDTREKLFGYAKTGLLSSSAASGVPQVENLENKGQ	0.268 ± 0.25	< 0.00438
argG M261Q (protein) MTTILKHLPVGQRIGIAFSGGLDTSAALLWMRQKGAVPYAYTANLGQPDEEDYDAIPRRAMEYGAENARLIDCRKQLVAEGIAAIQCGAFHNTTGGLTYFNTTPLGRAVTGTMLVAAMKEDGVNIWGDGSTYKGNDIERFYRYGLLTNAELQIYKPWLDTDFIDELGGRHEMSEFMIACGFDYKMSVEKAYSTDSNMLGATHEAKDLEYLNSSVKIVNPIMGVKFWDESVKIPAEEVTVRFEQGHPVALNGKTFSDDVEMQLEANRIGGRHGLGMSDQIENRIIEAKSRGIYEAPGMALLHIAYERLLTGIHNEDTIEQYHAHGRQLGRLLYQGRWFDSQALMLRDSLQRWVASQITGEVTLELRRGNDYSILNTVSENLTYKPERLTMEKGDSVFSPDDRIGQLTMRNLDITDTREKLFGYAKTGLLSSSAASGVPQVENLENKGQ	0.24 ± 0.17	0.011 ± 0.0083
argG M261P (protein) MTTILKHLPVGQRIGIAFSGGLDTSAALLWMRQKGAVPYAYTANLGQPDEEDYDAIPRRAMEYGAENARLIDCRKQLVAEGIAAIQCGAFHNTTGGLTYFNTTPLGRAVTGTMLVAAMKEDGVNIWGDGSTYKGNDIERFYRYGLLTNAELQIYKPWLDTDFIDELGGRHEMSEFMIACGFDYKMSVEKAYSTDSNMLGATHEAKDLEYLNSSVKIVNPIMGVKFWDESVKIPAEEVTVRFEQGHPVALNGKTFSDDVEMPLEANRIGGRHGLGMSDQIENRIIEAKSRGIYEAPGMALLHIAYERLLTGIHNEDTIEQYHAHGRQLGRLLYQGRWFDSQALMLRDSLQRWVASQITGEVTLELRRGNDYSILNTVSENLTYKPERLTMEKGDSVFSPDDRIGQLTMRNLDITDTREKLFGYAKTGLLSSSAASGVPQVENLENKGQ	0.16 ± 0.17	< 0.0144
hemA L187W (protein) MTLLALGINHKTAPVSLRERVSFSPDKLDQALDSLLAQPMVQGGVVLSTCNRTELYLSVEEQDNLQEALIRWLCDYHNLNEEDLRKSLYWHQDNDAVSHLMRVASGLDSLVLGEPQILGQVKKAFADSQKGHMKASELERMFQKSFSVAKRVRTETDIGASAVSVAFAACTLARQIFESLSTVTVLWVGAGETIELVARHLREHKVQKMIIANRTRERAQILADEVGAEVIALSDIDERLREADIIISSTASPLPIIGKGMVERALKSRRNQPMLLVDIAVPRDVEPEVGKLANAYLYSVDDLQSIISHNLAQRKAAAVEAETIVAQETSEFMAWLRAQSASETIREYRSQAEQVRDELTAKALAALEQGGDAQAIMQDLAWKLTNRLIHAPTKSLQQAARDGDNERLNILRDSLGLE	0.45 ± 0.012	0.0609 ± 0.081
hemA L276A (protein) MTLLALGINHKTAPVSLRERVSFSPDKLDQALDSLLAQPMVQGGVVLSTCNRTELYLSVEEQDNLQEALIRWLCDYHNLNEEDLRKSLYWHQDNDAVSHLMRVASGLDSLVLGEPQILGQVKKAFADSQKGHMKASELERMFQKSFSVAKRVRTETDIGASAVSVAFAACTLARQIFESLSTVTVLLVGAGETIELVARHLREHKVQKMIIANRTRERAQILADEVGAEVIALSDIDERLREADIIISSTASPLPIIGKGMVERALKSRRNQPMLAVDIAVPRDVEPEVGKLANAYLYSVDDLQSIISHNLAQRKAAAVEAETIVAQETSEFMAWLRAQSASETIREYRSQAEQVRDELTAKALAALEQGGDAQAIMQDLAWKLTNRLIHAPTKSLQQAARDGDNERLNILRDSLGLE	0.304 ± 0.041	0.0126 ± 0.0028
hemA L276W (protein) MTLLALGINHKTAPVSLRERVSFSPDKLDQALDSLLAQPMVQGGVVLSTCNRTELYLSVEEQDNLQEALIRWLCDYHNLNEEDLRKSLYWHQDNDAVSHLMRVASGLDSLVLGEPQILGQVKKAFADSQKGHMKASELERMFQKSFSVAKRVRTETDIGASAVSVAFAACTLARQIFESLSTVTVLLVGAGETIELVARHLREHKVQKMIIANRTRERAQILADEVGAEVIALSDIDERLREADIIISSTASPLPIIGKGMVERALKSRRNQPMLWVDIAVPRDVEPEVGKLANAYLYSVDDLQSIISHNLAQRKAAAVEAETIVAQETSEFMAWLRAQSASETIREYRSQAEQVRDELTAKALAALEQGGDAQAIMQDLAWKLTNRLIHAPTKSLQQAARDGDNERLNILRDSLGLE	0.405 ± 0.38	< 0.00813
